Measurements reported in the RNAGym collection of RNA variant scans (doi:10.1073/pnas.2313332121).
This sample is rich in variants without activity.

B1: TPR 5TU (parent)
chain: GGAUCUUCUCGAUCUAACAAAAAAGACAAAUCUGCCACAAAGCUUGAGAGCAUCUUCGGAUGCAGAGGCGGCAGCCUUCGGUGGCGCGAUAGCGCCAACGUUCUCAACUAUGACACGCAAAACGCGUGCUCCGUUGAAUGGAGUUUAUCAUG

Variants of: B1
Assay: polymerase ribozyme fitness, log enrichment relative to wild type (log ratio); higher = more active; in vitro selection for triplet polymerase activity
In short: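 A heterodimeric triplet polymerase ribozyme had each of its subunits mutagenized by PCR into a library, which was transcribed. One round of in vitro selection, done in triplicate, annealed each library with a biotinylated primer, its partner subunit and triplets, then incubated it frozen at −7 °C before gel excision of extended constructs, streptavidin-bead capture and RT-PCR. Fitness is the logarithm of genotype enrichment relative to wild-type enrichment, based on Illumina sequencing of inputs and outputs and inverse-variance-weighted replicate averages. A base-2 logarithm is used, and genotypes were kept only with ≥10 input reads and ≥1 read per output.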

Variant	polymerase ribozyme fitness (log ratio)
U9G C35U G92A G136A U151G	≤ -4.2
C8U C32G G84C A110G G152A	≤ -4.2
C8U A40U U55G U56A	≤ -4.2
U9A A16U A19U C27G U77C G84A G100C G133U G141A U145A	≤ -4.2
C8U C18A A20C A23C G62C A89G G136U	≤ -4.2
U9G A60G G80C C93A U109A	≤ -4.2
U9G A17U G58C G68U C93G C103A U134C	≤ -4.2
U9A C14U A49U C51U G86U A89U	≤ -4.2
U9C A60C U82A G84U U102G G126U	≤ -4.2
C8U C57A	-2.69
C8U C57U	-3.18
C8U A52G A89U C93U G94A G100A U135G	≤ -4.2
U9G A142G	≤ -4.2
U9G A17C A52C G84A C118A	≤ -4.2
C8U A60U A91C A119G U139G A142U G143C	≤ -4.2
U9A C18U U31C G67A G88U	≤ -4.2
U9G A16U G80A G83C	-4.08
C8U G25C U31A A107U	≤ -4.2
C8U C14U A28U U53A G71A C87G C93U U134G A150C	≤ -4.2
U9A A16G A30U G88A C132U G136A U144A	≤ -4.2
C8U U45A C87U C93U C105U	≤ -4.2

Variant	polymerase ribozyme fitness (log ratio)
U9G A19C A23G A39G C93G U139A G152U	≤ -4.2
C8U C87A	≤ -4.2
U9A	-2.7
U9C	-1.27
U9G	-2.82
C8U C10A A23C G59U G88U	≤ -4.2
U9A A21U A41G G59A A91C C118U	≤ -4.2
C8U U13C A22G C93U G126A	-1.08
U9A A28G A41C A64U G80U C87A C95U C131G	≤ -4.2
U9A C125G	≤ -4.2
U9A G128C U139A	≤ -4.2
C8U C14G C76G C96U	≤ -4.2
U9A A12C A21U U31G C95G A115G A147C	≤ -4.2
U9G A21C U44G G81A A91U C93U C118A	≤ -4.2
C8U G48U U55A G59A C75A C76U U145C	≤ -4.2
U9A A39U A52G C79G G84C C108U	≤ -4.2
C8U C32A	≤ -4.2
U9G C18U A21U G34U C103G G128U A138U	≤ -4.2
U9G A23U C132G U144G	≤ -4.2
U9C A40C U56A C96G U101C U134C	≤ -4.2
U9A A66G C75A G84A G128U U144C	≤ -4.2

Variant	polymerase ribozyme fitness (log ratio)
U9A G58C G83A C95U G141C U151C	≤ -4.2
C8U C51A G88U C93U	≤ -4.2
U9G C10A C18U A66U G81U C96U	≤ -4.2
U9G C18G C54G U55C C76A G92U U102A A137U U148A	≤ -4.2
U9C U13G C103G	≤ -4.2
U9G C35A A39G G83U G92C	≤ -4.2
U9C C18G A21G A29U C87G	≤ -4.2
C8U A40U C51U G92A C105A A150C	≤ -4.2
U9A C18U A19C C57G A73G C96U	≤ -4.2
U9A A16U C57U G70A C79A G88U C95U A119U U151A	≤ -4.2
U9A G68A A89U	≤ -4.2
U9G C18U A41C U44G U90G	≤ -4.2
C8U C35U G80A G83A U102G U145C U146C	≤ -4.2
U9G C18U A22G A29U C87G A91U C108G G124C C149G	≤ -4.2
U9G A24G U53A G67A C75G C87G	≤ -4.2
C8U C63U G86U	≤ -4.2
U9C C99A G117A	≤ -4.2
U9C C57U G70U U82G C95G	≤ -4.2
C8U A98U U135G U148C	≤ -4.2
C8U C57U A91U	≤ -4.2
U9C G84A C103U	≤ -4.2

Variant	polymerase ribozyme fitness (log ratio)
U9A A23U A49C G50A C87G A91G C103G G117A G128U U139A	≤ -4.2
C8U G46A C54G U77A C93U U130G G141C	≤ -4.2
U9A A17U A26G C79U	≤ -4.2
U9G C18U A39G A49C C51A G94U A106G	≤ -4.2
U9A C93A	-3.87
C8U C14A C27U A28C C57A G84U G140C	≤ -4.2
C8U C38G G50U A91U C96A	≤ -4.2
U9A A28U A37C C57A C85A	≤ -4.2
U9A G11A C27U G84U	≤ -4.2
U9C A23G A41C C95U	≤ -4.2
U9C C38U A52U C75G G92U G94A G136U U144G	≤ -4.2
U9A U44A C54A G58U G62C C93A A150C	≤ -4.2
U9C G62C G70C C99G G126A	≤ -4.2
U9C A28U U31A C57A G86A A113C	≤ -4.2
U9A U53A U78G G86A A147C	≤ -4.2
U9G A52G C57U G68C G80C C85G C149U	≤ -4.2
U9G A40G A41C G46A G62A G81A A106G U109C G117C G141C	≤ -4.2
U9C G58C U134G A150U	≤ -4.2
U9G C14A C38G C75G G83A A119C	≤ -4.2
U9G C27A G84U C114U C125G G143A	≤ -4.2
